{"source": "PubChem BioAssay AID686970", "about": "(National Center for Advancing Translational Sciences (NCATS), 2013)", "note": "About 6,000 (1.7%) of roughly 360,000 compounds were called active. The shares of active, inactive and inconclusive entries below differ from those in the screen. Calls come from the whole dose curve; as a rule, active = well fitted cell-killing curve with a large enough effect; inconclusive = small, poorly fitted or top-dose-only effect, or effect the other way; inactive = flat fitted curve, though single readings scatter. Potencies of inconclusive entries are left out as doubtful fits.", "data": [{"assay": "qHTS for induction of synthetic lethality in tumor cells producing 2HG: qHTS for the HT-1080-NT fibrosarcoma cell line;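 note: NT is the 2HG producing partner of a matched IDH1 knockdown line; nearly all actives have a fitted effect of over 55% in size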; note: potency is the fitted concentration of half-maximal effect; tags give direction and shape of the fitted curve;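 for activity, negative = less viability: 0% = DMSO-treated cells and -100% = media-only wells without cells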", "conditions": "HT-1080-NT fibrosarcoma viability, CellTiter-Glo ATP luminescence, 48 h; activity, negative = less viability: at 46.1 µM (top of the series) unless noted", "procedure,_shortened": "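Viability by CellTiter-Glo luminescence after 48 h compound exposure at 37C of HT-1080-NT cells (750/well, RPMI, 5% FBS). % activity scaled between DMSO wells and medium-only wells, then curve-fitted and categorized by curve class.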", "values": [{"molecule": "CC(C)NC(=O)C1CC(=O)N(c2ccc(F)c(Cl)c2)C1", "note": "(stereo not drawn)", "activity, negative = less viability": "inactive: 21.4%"}, {"molecule": "O=C(OCC(=O)N1N=C(c2ccc(Cl)cc2)CC1c1ccco1)c1cccnc1", "note": "(stereo not drawn)", "Potency": "inconclusive [cytotoxic, single point]"}, {"molecule": "CCN(CC(=O)Nc1cc(Cl)ccc1C)C(=O)c1ccc(N2CCCC2=O)cc1", "activity, negative = less viability": "inactive: 11.6%"}, {"molecule": "COc1ccc2nc(C)cc(NCc3ccc(F)cc3)c2c1", "Potency": "inconclusive [cytotoxic, single point]"}, {"molecule": "O=C(Nc1ncc(Cc2cccc(Cl)c2)s1)C1=NCCN1", "Potency": "active: 20 µM"}, {"molecule": "O=C(NC1CC1)c1ccc(CSCc2ccccc2Cl)o1", "Potency": "inconclusive [cytotoxic, single point]"}, {"molecule": "Cc1ccc(N(NC(=O)C(O)(c2ccccc2)c2ccccc2)C(=O)CCl)cc1", "Potency": "active: 5.17 µM"}, {"molecule": "O=C(Nc1ccc2c(c1)CCO2)Nc1nnc([C@H]2C[C@H](O)[C@@H](CO)O2)s1", "activity, negative = less viability": "inactive: 28.1%"}, {"molecule": "Cc1ccc(C)c(Cn2c3ccccc3c3cnn(CC(=O)NCCCN4CCCCC4)c(=O)c32)c1", "Potency": "inconclusive [cytotoxic, single point]"}, {"molecule": "Cn1c(SCC(=O)NC(=O)NCc2ccccc2)nnc1C(F)(F)F", "activity, negative = less viability": "inactive: -2.97%"}, {"molecule": "NC(=NCCc1c[nH]c2ccccc12)NC(=O)c1ccc(Cl)cc1", "Potency": "inconclusive [cytotoxic, single point]"}, {"molecule": "COc1ccc(-c2cc(CS(=O)(=O)c3ccccc3)on2)cc1", "activity, negative = less viability": "inactive: 18.5%"}, {"molecule": "CN(C)S(=O)(=O)c1cccc(NC(=S)NC23CC4CC(CC(C4)C2)C3)c1", "Potency": "inconclusive [cytotoxic, single point]"}, {"molecule": "Cn1c(=O)c(Cc2ccccc2)c(O)c2ccccc21", "activity, negative = less viability": "inactive: -0.257% [at 9.24 µM]"}, {"molecule": "COc1ccc(CC2(CO)CCN(C(C)Cc3ccc(Cl)cc3)CC2)cc1", "note": "(stereo not drawn)", "Potency": "inconclusive [cytotoxic, single point]"}, {"molecule": "Cc1nc(NC(=O)C23CC4CC(CC(C4)C2)C3)sc1Cc1ccc2c(c1)OCO2", "activity, negative = less viability": "inactive: -1.03%"}, {"molecule": "CCCc1cc(NC(=O)CCl)n(-c2ccccc2)n1", "Potency": "inconclusive [cytotoxic, single point]"}, {"molecule": "O=C(CN1CCC(NC(=O)Nc2ccc(F)cc2)CC1)Nc1ccccc1[N+](=O)[O-]", "activity, negative = less viability": "inactive: -10.5%"}, {"molecule": "O=C(COC(=O)c1ccc2c(c1[N+](=O)[O-])C(=O)c1ccccc1C2=O)NC1CC1", "Potency": "inconclusive [cytotoxic, single point]"}, {"molecule": "Cn1nnnc1SCc1nnc(-c2ccccc2Br)o1", "activity, negative = less viability": "inactive: 4.67%"}, {"molecule": "CCCCNC(=O)c1ccc2c(c1)ncn2C1CCCCC1", "activity, negative = less viability": "inactive: 9.56%"}, {"molecule": "CC1=C(C(=O)OC2CCCCCCC2)C(c2ccc(O)cc2)NC(=O)N1", "note": "(stereo not drawn)", "Potency": "inconclusive [cytotoxic, single point]"}, {"molecule": "CC(=O)c1c(C)[nH]c(C(=O)Nc2nc(-c3ccc(-c4ccccc4)cc3)cs2)c1C", "Potency": "inconclusive [cytotoxic, single point]"}, {"molecule": "CCOc1ccccc1N(C(=O)Nc1ccc(Cl)cc1)C1=NCCS1", "activity, negative = less viability": "inactive: -2.01%"}, {"molecule": "c1ccc(-c2nccc(-c3ccc(-n4cnc5ccccc54)cc3)n2)cc1", "Potency": "inconclusive [cytotoxic, single point]"}, {"molecule": "CCc1nc2ccc(C(=O)NCc3ccccc3OC)cn2c1N(C)C(=O)Cc1ccccc1", "activity, negative = less viability": "inactive: 4.59%"}, {"molecule": "O=C(c1ccco1)N1CCN(c2ncnc3c2[nH]c2ccc(Br)cc23)CC1", "Potency": "inconclusive [cytotoxic, single point]"}, {"molecule": "Cc1ccc(C)c(NS(=O)(=O)c2cc(C(=O)Nc3ccccc3-c3ccccc3)ccc2Cl)c1", "Potency": "inconclusive [cytotoxic, single point]"}, {"molecule": "CCn1nc(C)cc1C(=O)Sc1ccc(Cl)cc1Cl", "Potency": "inconclusive [cytotoxic, single point]"}, {"molecule": "COc1ccc(C2/C=C\\CN(C(=O)C3CCCC3)[C@H](Cc3ccccc3)C(=O)N2Cc2ccc(F)cc2)cc1", "note": "(stereo partly drawn)", "activity, negative = less viability": "inactive: -17%"}, {"molecule": "CN(CC(=O)Nc1cccc(F)c1)C(=O)c1cc(S(=O)(=O)N2CCN(c3ccccc3)CC2)ccc1Cl", "activity, negative = less viability": "inactive: 2.22% [at 9.24 µM]"}, {"molecule": "CCCCCCCCOC(=O)c1c(CSC(=N)N)n(C)c2cc(Br)c(OC(C)=O)cc12", "Potency": "inconclusive [cytotoxic, single point]"}, {"molecule": "CC(C)(C)OC(=O)N1CCC[C@H]1C(=O)N1CCC[C@H]1C(=O)NCc1ccncc1", "activity, negative = less viability": "inactive: 14.2%"}, {"molecule": "CC1(C)Cc2ccccc2-c2nnc(-c3ccccn3)n21", "Potency": "inconclusive [rising, single point]"}, {"molecule": "Cc1ccccc1OCC(=O)Nc1nc2ccccc2[nH]1", "Potency": "inconclusive [rising, partial curve]"}, {"molecule": "Nc1nc(Nc2ccc(Cl)cc2)nc(NCc2ccco2)c1[N+](=O)[O-]", "Potency": "inconclusive [cytotoxic, single point]"}, {"molecule": "CN1CC(c2ccccc2Cl)C2(COc3ccccc3C2=O)C12C(=O)Nc1ccccc12", "note": "(stereo not drawn)", "Potency": "inconclusive [cytotoxic, single point]"}, {"molecule": "CSc1sccc1/C=C(/C#N)C(=O)c1ccco1", "Potency": "inconclusive [cytotoxic, single point]"}, {"molecule": "CC(C)c1nnc(NC(=O)CCS(=O)(=O)c2nc(-c3cccs3)cc(C(F)(F)F)n2)s1", "Potency": "inconclusive [cytotoxic, single point]"}, {"molecule": "Cc1cc(C)cc(NC(=S)N2CCC(NC(=O)C3CC3)CC2)c1", "activity, negative = less viability": "inactive: 7.22%"}, {"molecule": "CC(=O)c1ccc(OCc2nnn(CC(=O)O)c2-c2ccccc2)cc1", "activity, negative = less viability": "inactive: -1.38%"}, {"molecule": "COc1ccc(/C=C2\\CC/C(=C\\c3ccc(OC)c(OC)c3)C2=O)cc1OC", "Potency": "inconclusive [cytotoxic, single point]"}, {"molecule": "COc1ccccc1NC(=O)C1CCN(C(=O)C2CC(=O)N(c3ccc(C)cc3)C2)CC1", "note": "(stereo not drawn)", "activity, negative = less viability": "inactive: 0%"}, {"molecule": "CCNC(=O)C1(C)CCCN1C(=O)c1ccc(-c2ccccc2)cc1", "note": "(stereo not drawn)", "activity, negative = less viability": "inconclusive: 9.18%"}, {"molecule": "C=CCNC(=S)N/N=C/c1ccc(OCc2ccccc2Cl)cc1", "Potency": "active: 3.16 µM"}, {"molecule": "O=C(O)c1ccc(C2Nc3ccccc3C(=O)N2Cc2ccccc2)cc1", "note": "(stereo not drawn)", "activity, negative = less viability": "inactive: 18.8%"}, {"molecule": "COc1ccc(CNS(=O)(=O)c2ccc3c(c2)N(C(C)=O)CC(C)S3)cc1", "note": "(stereo not drawn)", "activity, negative = less viability": "inactive: -15.8%"}, {"molecule": "CCOC(=O)c1ccc2ncc(C(=O)OCC)c(NCCN(C)C)c2c1", "Potency": "inconclusive [rising, single point]"}, {"molecule": "CC(C)=CCCC1(C)C=Cc2c(ccc3c2[nH]c2cc(O)c(C)cc23)O1", "note": "(stereo not drawn)", "Potency": "inconclusive [cytotoxic, single point]"}, {"molecule": "Cc1nnn(C23CC4CC(CC(C(=O)NN)(C4)C2)C3)n1", "activity, negative = less viability": "inconclusive: -4.07%"}, {"molecule": "COc1ccc2sc(N(CCCN(C)C)C(=O)c3ccc(S(=O)(=O)N4CCc5ccccc5C4)cc3)nc2c1", "Potency": "inconclusive [cytotoxic, single point]"}, {"molecule": "O=C1NC(=S)S/C1=C\\c1cc(Cl)ccc1Cl", "Potency": "inconclusive [cytotoxic, single point]"}, {"molecule": "CCN(CC)CCN(C(=O)C1=COCCO1)c1nc2c(OC)ccc(OC)c2s1", "activity, negative = less viability": "inactive: -0.184%"}, {"molecule": "COc1cccc(NC2=C(NCCO)C(=O)c3ccccc3C2=O)c1", "Potency": "inconclusive [cytotoxic, single point]"}, {"molecule": "CCc1ccc2c(c1)cc(CN(C(=S)Nc1ccccc1)C1CC1)c1nnnn12", "Potency": "inconclusive [rising, single point]"}, {"molecule": "O=C(NCc1cc(C(F)(F)F)ccc1Cl)c1cccc2c1C(=O)c1ccc(N3CCCCC3)cc1S2(=O)=O", "activity, negative = less viability": "inactive: -18.9%"}, {"molecule": "CCc1nc2ccccc2c(C(=O)OCc2nc3ccccc3c(=O)[nH]2)c1C", "Potency": "active: 10.3 µM"}, {"molecule": "CCN(CC)c1ccc(NC(=O)c2ccc3c(c2)OCO3)cc1", "Potency": "inconclusive [cytotoxic, single point]"}, {"molecule": "COCCn1c(C)cc(C(=O)CSc2nnc(C)s2)c1C", "activity, negative = less viability": "inactive: -12.2%"}, {"molecule": "CCN(CC)S(=O)(=O)c1ccc(N2CCCC2)c(NC(=O)c2ccc(N3CCCC3=O)cc2)c1", "activity, negative = less viability": "inactive: 4.2%"}, {"molecule": "C[C@@H]1CN([C@@H](C)CO)C(=O)c2cc(C#CC(C)(C)O)cnc2O[C@@H]1CN(C)C(=O)c1ccccc1F", "activity, negative = less viability": "inactive: -1.53%"}, {"molecule": "O=C(CCl)NC(=O)NC12CC3CC(CC(C3)C1)C2", "activity, negative = less viability": "inactive: -25.4%"}, {"molecule": "COc1ccc(-c2cc(NC=O)c3ncc(-c4cccc(C(F)(F)F)c4)n3c2)cc1OC", "Potency": "inconclusive [cytotoxic, single point]"}, {"molecule": "O=c1[nH]c(Cc2ccccn2)nc2scc(-c3ccccc3Cl)c12", "Potency": "inconclusive [cytotoxic, single point]"}, {"molecule": "C#CCNC(=O)C[C@@H]1C[C@@]2(C(=O)OCC)CCCC=C2N(Cc2ccc3c(c2)OCO3)C1=O", "activity, negative = less viability": "inactive: 1.98%"}, {"molecule": "O=C(c1ccco1)N1CCN(C(=O)C2CC(=O)N(c3ccc(Cl)cc3)C2)CC1", "note": "(stereo not drawn)", "activity, negative = less viability": "inactive: -4.36%"}, {"molecule": "CCOC(=O)/C(=C\\c1ccc([N+](=O)[O-])o1)NC(=O)c1ccccc1", "Potency": "inconclusive [cytotoxic, single point]"}, {"molecule": "Cc1ccc(NC(=O)c2ccc(Cl)cc2[N+](=O)[O-])nc1", "Potency": "active: 5.8 µM"}, {"molecule": "O=C1N/C(=C/c2ccc(N3CCOCC3)o2)C(=O)N1c1cccc(Cl)c1", "Potency": "inconclusive [cytotoxic, single point]"}, {"molecule": "Cc1onc(-c2ccccc2)c1C(=O)N/N=C(\\N)COc1ccc(Cl)cc1", "Potency": "inconclusive [cytotoxic, single point]"}, {"molecule": "CCN(CC)c1ccc(/C=N/Nc2nc(C)cc(C)n2)c(O)c1", "Potency": "inconclusive [cytotoxic, single point]"}, {"molecule": "O=C(NCc1ccc2c(c1)OCO2)c1nc(S(=O)(=O)Cc2ccccc2)ncc1Cl", "Potency": "active: 16.4 µM"}, {"molecule": "O=C(Nc1cnn(Cc2ccc(F)cc2)c1)c1noc2c1CCCC2", "Potency": "inconclusive [cytotoxic, full curve, poor fit]"}]}]}
